{
  "sequences": {"note": "The chains behind the UniProt entries cited, without tags or fusion partners. Where a name states a change or a piece, a line headed by the entry shows the natural chain unless it says otherwise. Residues count along the entry.", "UniProt P48670": "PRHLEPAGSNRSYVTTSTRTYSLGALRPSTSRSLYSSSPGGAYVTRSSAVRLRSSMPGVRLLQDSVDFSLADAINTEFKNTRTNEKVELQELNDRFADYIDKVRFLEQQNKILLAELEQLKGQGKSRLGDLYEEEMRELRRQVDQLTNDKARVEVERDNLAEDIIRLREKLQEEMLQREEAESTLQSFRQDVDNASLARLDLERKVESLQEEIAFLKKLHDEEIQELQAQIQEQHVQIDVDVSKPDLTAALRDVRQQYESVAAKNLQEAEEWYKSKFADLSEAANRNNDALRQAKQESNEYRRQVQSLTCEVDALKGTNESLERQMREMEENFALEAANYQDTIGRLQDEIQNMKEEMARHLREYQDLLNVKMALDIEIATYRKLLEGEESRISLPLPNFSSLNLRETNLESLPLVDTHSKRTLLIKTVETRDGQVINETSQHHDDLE", "UniProt P15331": "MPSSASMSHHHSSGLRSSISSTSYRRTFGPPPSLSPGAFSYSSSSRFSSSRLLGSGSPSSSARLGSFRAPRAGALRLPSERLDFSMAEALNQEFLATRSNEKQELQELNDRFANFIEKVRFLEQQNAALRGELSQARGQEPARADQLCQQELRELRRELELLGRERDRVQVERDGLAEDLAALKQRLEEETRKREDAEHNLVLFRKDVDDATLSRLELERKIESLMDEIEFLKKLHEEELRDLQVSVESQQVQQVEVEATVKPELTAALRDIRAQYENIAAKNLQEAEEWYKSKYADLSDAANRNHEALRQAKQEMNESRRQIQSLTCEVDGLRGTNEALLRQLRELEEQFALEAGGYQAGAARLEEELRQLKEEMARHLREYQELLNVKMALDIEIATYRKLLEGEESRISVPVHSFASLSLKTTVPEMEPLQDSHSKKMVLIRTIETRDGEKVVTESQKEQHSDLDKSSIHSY", "UniProt P03995": "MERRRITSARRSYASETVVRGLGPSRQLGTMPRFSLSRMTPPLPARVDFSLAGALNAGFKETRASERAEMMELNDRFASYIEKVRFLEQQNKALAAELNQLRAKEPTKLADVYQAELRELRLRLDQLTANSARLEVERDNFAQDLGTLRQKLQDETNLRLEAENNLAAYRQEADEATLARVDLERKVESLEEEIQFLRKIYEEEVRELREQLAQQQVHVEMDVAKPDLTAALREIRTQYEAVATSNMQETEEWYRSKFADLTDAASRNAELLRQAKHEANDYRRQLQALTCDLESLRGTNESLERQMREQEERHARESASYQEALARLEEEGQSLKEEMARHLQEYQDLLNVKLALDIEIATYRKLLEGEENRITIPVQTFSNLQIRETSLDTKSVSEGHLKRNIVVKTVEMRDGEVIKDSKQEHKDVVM", "MBP-Myo Va head domain (41-505) (Q99104, residues 41-505)": "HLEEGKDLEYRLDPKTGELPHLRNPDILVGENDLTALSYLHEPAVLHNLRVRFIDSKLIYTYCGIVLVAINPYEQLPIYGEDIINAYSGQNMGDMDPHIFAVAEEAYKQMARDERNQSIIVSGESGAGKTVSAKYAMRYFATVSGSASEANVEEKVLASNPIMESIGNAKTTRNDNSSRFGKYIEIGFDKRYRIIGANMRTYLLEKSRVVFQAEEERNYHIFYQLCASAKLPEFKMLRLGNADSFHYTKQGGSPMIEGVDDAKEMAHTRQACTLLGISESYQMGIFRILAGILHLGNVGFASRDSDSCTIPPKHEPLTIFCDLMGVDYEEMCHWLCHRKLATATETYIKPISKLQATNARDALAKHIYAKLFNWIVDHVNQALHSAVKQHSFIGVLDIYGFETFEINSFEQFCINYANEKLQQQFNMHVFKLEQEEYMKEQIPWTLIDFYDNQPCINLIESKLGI", "MBP-Myo Va N-terminal motor domain (41-326) (Q99104, residues 41-326)": "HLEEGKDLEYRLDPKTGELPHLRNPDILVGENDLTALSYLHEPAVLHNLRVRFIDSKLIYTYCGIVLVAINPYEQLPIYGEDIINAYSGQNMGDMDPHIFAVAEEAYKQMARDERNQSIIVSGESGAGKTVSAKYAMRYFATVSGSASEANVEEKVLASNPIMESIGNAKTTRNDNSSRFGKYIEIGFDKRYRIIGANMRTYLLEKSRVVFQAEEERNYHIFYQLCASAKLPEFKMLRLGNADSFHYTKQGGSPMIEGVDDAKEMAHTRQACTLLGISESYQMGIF", "MBP-Myo Va C-terminal head domain (327-505) (Q99104, residues 327-505)": "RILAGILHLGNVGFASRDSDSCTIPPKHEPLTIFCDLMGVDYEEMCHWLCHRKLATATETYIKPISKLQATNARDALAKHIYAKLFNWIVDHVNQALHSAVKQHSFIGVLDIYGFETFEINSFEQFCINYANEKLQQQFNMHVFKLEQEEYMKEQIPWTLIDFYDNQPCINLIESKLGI", "UniProt Q02440": "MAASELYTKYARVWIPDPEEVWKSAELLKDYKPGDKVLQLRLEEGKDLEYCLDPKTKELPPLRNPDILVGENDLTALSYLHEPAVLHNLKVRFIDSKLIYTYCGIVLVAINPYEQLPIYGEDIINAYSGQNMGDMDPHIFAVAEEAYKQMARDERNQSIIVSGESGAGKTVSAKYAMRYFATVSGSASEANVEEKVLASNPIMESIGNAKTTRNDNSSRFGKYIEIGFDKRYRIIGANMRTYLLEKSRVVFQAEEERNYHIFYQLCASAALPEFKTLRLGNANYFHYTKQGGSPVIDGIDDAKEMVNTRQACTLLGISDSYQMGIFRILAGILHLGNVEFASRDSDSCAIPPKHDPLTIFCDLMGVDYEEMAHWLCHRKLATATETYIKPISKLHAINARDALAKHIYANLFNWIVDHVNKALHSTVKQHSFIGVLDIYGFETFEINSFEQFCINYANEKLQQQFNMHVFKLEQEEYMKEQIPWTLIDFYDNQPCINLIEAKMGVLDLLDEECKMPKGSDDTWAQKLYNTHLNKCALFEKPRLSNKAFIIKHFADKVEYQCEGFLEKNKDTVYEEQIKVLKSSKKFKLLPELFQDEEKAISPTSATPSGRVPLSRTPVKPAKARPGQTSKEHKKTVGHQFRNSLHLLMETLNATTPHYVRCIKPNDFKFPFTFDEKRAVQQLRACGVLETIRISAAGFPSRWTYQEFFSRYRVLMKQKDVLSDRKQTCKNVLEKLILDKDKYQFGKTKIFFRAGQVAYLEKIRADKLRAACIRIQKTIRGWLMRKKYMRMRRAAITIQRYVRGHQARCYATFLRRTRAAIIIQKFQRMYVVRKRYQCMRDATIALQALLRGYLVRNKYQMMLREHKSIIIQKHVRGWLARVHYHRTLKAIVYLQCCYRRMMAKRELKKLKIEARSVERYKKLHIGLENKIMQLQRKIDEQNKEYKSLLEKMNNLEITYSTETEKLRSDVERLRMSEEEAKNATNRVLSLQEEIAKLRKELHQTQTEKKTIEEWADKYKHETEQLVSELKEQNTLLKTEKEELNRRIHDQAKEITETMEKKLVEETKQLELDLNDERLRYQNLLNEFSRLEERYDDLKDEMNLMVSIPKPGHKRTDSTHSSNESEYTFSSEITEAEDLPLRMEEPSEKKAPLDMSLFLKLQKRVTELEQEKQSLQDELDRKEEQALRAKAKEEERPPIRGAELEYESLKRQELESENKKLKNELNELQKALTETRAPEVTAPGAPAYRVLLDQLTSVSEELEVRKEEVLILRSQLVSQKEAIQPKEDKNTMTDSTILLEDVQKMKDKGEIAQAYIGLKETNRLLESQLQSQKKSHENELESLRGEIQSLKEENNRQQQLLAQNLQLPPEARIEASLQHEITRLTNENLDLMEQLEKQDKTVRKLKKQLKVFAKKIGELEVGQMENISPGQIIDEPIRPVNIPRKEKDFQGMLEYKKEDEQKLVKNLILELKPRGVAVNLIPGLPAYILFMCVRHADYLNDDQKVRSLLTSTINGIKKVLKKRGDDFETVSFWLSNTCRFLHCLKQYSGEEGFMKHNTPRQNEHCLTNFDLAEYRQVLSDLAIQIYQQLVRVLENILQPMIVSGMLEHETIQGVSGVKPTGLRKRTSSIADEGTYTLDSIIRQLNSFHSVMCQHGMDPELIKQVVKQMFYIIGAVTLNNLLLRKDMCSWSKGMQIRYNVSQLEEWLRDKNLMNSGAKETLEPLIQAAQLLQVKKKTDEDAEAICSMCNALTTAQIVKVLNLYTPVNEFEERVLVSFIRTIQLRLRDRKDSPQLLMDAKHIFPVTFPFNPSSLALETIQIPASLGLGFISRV"},
  "source": "paper PMC3040190",
  "key": {"[1]": {"target": "T1, neurofilament light subunit (NF-L) from mouse (mouse) (UniProt P08551)", "T1 sequence": "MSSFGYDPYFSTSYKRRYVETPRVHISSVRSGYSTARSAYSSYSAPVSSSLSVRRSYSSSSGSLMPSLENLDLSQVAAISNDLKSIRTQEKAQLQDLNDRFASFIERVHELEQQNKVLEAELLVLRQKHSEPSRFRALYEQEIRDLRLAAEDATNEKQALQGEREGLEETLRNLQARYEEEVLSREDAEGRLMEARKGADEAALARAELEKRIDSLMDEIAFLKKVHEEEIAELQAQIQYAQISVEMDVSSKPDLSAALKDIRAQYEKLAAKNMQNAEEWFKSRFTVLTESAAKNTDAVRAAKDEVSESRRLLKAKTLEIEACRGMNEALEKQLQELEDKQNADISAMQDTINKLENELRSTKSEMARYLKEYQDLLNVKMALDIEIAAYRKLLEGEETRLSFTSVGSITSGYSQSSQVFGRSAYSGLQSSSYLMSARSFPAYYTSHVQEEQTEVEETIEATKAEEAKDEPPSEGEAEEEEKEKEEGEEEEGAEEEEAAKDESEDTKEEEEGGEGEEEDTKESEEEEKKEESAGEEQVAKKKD", "assay": "co-IP; MBP-Myo Va constructs (0.5-2 µg, equimolar) mixed 1 hr in 1X RIPA buffer with an excess of purified NF-L; NF-L antibody (NR-4 or 21.4) 1 hr at RT, protein A/G Sepharose; washed 3X with 500 mM NaCl, 0.1% NP40, 0.02% SDS; blotted with anti-MBP; only the target purified"}, "[2]": {"target": "T1, neurofilament light subunit (NF-L) from mouse (mouse)", "assay": "far-Western, overlay or dot blot; blot overlay: mouse cytoskeletal fractions (brain, optic nerve, spinal cord, sciatic nerve) on 7% SDS gels, transferred to nitrocellulose, blocked with 3% milk, incubated with MBP-tagged Myo Va constructs (equimolar) overnight at 4°C, detected with anti-MBP-HRP"}, "[3]": {"target": "T1, neurofilament light subunit (NF-L) from mouse (mouse)", "assay": "far-Western, overlay or dot blot; blot overlay: purified NF-L, actin, vimentin and desmin on SDS gels, transferred to nitrocellulose, incubated with MBP-Myo Va (41-326) overnight at 4°C, detected with anti-MBP-HRP; only the target purified"}, "[4]": {"target": "vimentin (hamster) (hamster) (UniProt P48670)", "assay": "far-Western, overlay or dot blot; blot overlay: purified NF-L, actin, vimentin and desmin on SDS gels, transferred to nitrocellulose, incubated with MBP-Myo Va (41-326) overnight at 4°C, detected with anti-MBP-HRP; only the target purified"}, "[5]": {"target": "T2, Myc-tagged NF-L head + rod (1-243) (mouse) (UniProt P08551)", "T2 sequence": "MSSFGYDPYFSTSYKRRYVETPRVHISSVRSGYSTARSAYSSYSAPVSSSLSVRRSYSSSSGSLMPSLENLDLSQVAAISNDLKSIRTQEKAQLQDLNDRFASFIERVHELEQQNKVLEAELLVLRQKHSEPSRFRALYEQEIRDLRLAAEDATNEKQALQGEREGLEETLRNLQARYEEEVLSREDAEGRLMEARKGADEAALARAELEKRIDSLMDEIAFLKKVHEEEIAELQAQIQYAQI", "assay": "co-IP; MBP-Myo Va 41-326 mixed in 1X RIPA buffer with Myc-tagged NF-L constructs; precipitated with Myc antibody 9E10, protein A/G Sepharose; high salt washes; blotted with anti-MBP and anti-Myc; in Fig. 3C also with 5 mM magnesium and/or calcium"}, "[6]": {"target": "T3, Myc-tagged NF-L N-terminal rod domain (94-243) (mouse) (UniProt P08551)", "T3 sequence": "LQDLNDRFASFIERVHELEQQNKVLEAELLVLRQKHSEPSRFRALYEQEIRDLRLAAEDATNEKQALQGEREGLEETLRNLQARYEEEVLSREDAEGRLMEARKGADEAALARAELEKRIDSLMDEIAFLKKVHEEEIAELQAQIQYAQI", "assay": "co-IP; MBP-Myo Va 41-326 mixed in 1X RIPA buffer with Myc-tagged NF-L constructs; precipitated with Myc antibody 9E10, protein A/G Sepharose; high salt washes; blotted with anti-MBP and anti-Myc; in Fig. 3C also with 5 mM magnesium and/or calcium"}, "[7]": {"target": "T4, Myc-tagged full length NF-L (1-543) (mouse) (UniProt P08551)", "T4 sequence": "T1 sequence", "assay": "co-IP; MBP-Myo Va 41-326 mixed in 1X RIPA buffer with Myc-tagged NF-L constructs; precipitated with Myc antibody 9E10, protein A/G Sepharose; high salt washes; blotted with anti-MBP and anti-Myc; in Fig. 3C also with 5 mM magnesium and/or calcium"}, "[8]": {"target": "T5, α-internexin (mouse (endogenous in optic nerve and spinal cord)) (UniProt P46660)", "T5 sequence": "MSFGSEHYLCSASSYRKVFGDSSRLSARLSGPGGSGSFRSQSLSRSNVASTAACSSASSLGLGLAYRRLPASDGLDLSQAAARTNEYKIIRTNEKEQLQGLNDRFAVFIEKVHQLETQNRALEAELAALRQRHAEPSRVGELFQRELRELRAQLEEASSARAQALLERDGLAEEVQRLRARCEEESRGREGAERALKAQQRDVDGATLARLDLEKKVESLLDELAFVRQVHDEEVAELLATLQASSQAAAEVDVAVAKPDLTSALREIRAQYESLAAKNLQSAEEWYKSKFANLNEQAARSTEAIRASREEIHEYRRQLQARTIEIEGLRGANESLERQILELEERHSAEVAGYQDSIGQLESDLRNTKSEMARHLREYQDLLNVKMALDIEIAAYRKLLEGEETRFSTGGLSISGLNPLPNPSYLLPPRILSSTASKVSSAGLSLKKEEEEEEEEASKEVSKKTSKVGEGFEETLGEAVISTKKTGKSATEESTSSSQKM", "assay": "far-Western, overlay or dot blot; blot overlay: mouse cytoskeletal fractions (brain, optic nerve, spinal cord, sciatic nerve) on 7% SDS gels, transferred to nitrocellulose, blocked with 3% milk, incubated with MBP-tagged Myo Va constructs (equimolar) overnight at 4°C, detected with anti-MBP-HRP"}, "[9]": {"target": "peripherin (mouse (endogenous in optic nerve and sciatic nerve)) (UniProt P15331)", "assay": "far-Western, overlay or dot blot; blot overlay: mouse cytoskeletal fractions (brain, optic nerve, spinal cord, sciatic nerve) on 7% SDS gels, transferred to nitrocellulose, blocked with 3% milk, incubated with MBP-tagged Myo Va constructs (equimolar) overnight at 4°C, detected with anti-MBP-HRP"}, "[10]": {"target": "GFAP (mouse (endogenous in optic nerve, spinal cord and brain)) (UniProt P03995)", "assay": "far-Western, overlay or dot blot; blot overlay: mouse cytoskeletal fractions (brain, optic nerve, spinal cord, sciatic nerve) on 7% SDS gels, transferred to nitrocellulose, blocked with 3% milk, incubated with MBP-tagged Myo Va constructs (equimolar) overnight at 4°C, detected with anti-MBP-HRP"}, "[11]": {"target": "T1, neurofilament light subunit (NF-L) from mouse (mouse)", "assay": "co-IP; specificity control, data not shown at least in part; NF-L with MBP-Myo Va-Head (5-752), purified MBP alone or BSA"}, "[12]": {"target": "T1, neurofilament light subunit (NF-L) from mouse (mouse)", "assay": "co-IP; data not shown; hexa-His-tagged Myo Va tail constructs and the Myo Va head with full-length NF-L"}},
  "note": "No constants are given. Whether binding was seen depends on the method and setting. For part of these data: Binding seen in cells or lysates may run through a third protein. Some results given as binding are weak or reduced against the parent protein; the word gives no strength. For part of these data: Tags and fused reporters may be left off the sequences shown.",
  "data": [
    {"substance": "MBP-Myo Va C-terminal head domain (327-505) (from UniProt Q99104 327-505) (domain or fragment)", "values": [
      {"measurement": "binding", "setting": "[1]", "result": "no binding (tested: 0.5–2 µg)"},
      {"measurement": "binding", "setting": "[2]", "result": "no binding"}
    ]},
    {"substance": "MBP-Myo Va N-terminal motor domain (41-326) (from UniProt Q99104 41-326) (domain or fragment)", "values": [
      {"measurement": "binding", "setting": "[3]", "result": "binds"},
      {"measurement": "binding", "setting": "[4]", "result": "binds"},
      {"measurement": "binding", "setting": "[1]", "result": "binds"},
      {"measurement": "binding", "setting": "[5]", "result": "binds"},
      {"measurement": "binding", "setting": "[6]", "result": "binds"},
      {"measurement": "binding", "setting": "[7]", "result": "binds"},
      {"measurement": "binding", "setting": "[2]", "result": "binds"},
      {"measurement": "binding", "setting": "[8]", "result": "binds"},
      {"measurement": "binding", "setting": "[9]", "result": "binds"},
      {"measurement": "binding", "setting": "[10]", "result": "binds"}
    ]},
    {"substance": "MBP-Myo Va head domain (5-752) (from UniProt Q02440 5-752) (domain or fragment)", "values": [
      {"measurement": "binding", "setting": "[1]", "result": "binds"},
      {"measurement": "binding", "setting": "[11]", "result": "binds"},
      {"measurement": "binding", "setting": "[2]", "result": "binds"},
      {"measurement": "binding", "setting": "[8]", "result": "binds"},
      {"measurement": "binding", "setting": "[9]", "result": "binds"},
      {"measurement": "binding", "setting": "[10]", "result": "binds"},
      {"measurement": "binding", "setting": "[12]", "result": "binds"}
    ]},
    {"substance": "MBP-Myo Va head domain (41-505) (from UniProt Q99104 41-505) (domain or fragment)", "values": [
      {"measurement": "binding", "setting": "[1]", "result": "binds"},
      {"measurement": "binding", "setting": "[2]", "result": "binds"}
    ]},
    {"substance": "MBP-Myo Va neck region (760-922) (from UniProt Q02440 760-922) (domain or fragment)", "values": [
      {"measurement": "binding", "setting": "[1]", "result": "binds"}
    ]},
    {"substance": "MBP-Myo Va neck region (800-881) (from UniProt Q02440 800-881) (domain or fragment)", "values": [
      {"measurement": "binding", "setting": "[1]", "result": "binds weakly"}
    ]},
    {"substance": "MBP-Myo Va tail domain (899-1830) (from UniProt Q02440 899-1829) (domain or fragment)", "values": [
      {"measurement": "binding", "setting": "[1]", "result": "no binding (tested: 0.5–2 µg)"}
    ]}
  ]
}
